From PubChem BioAssay AID686978 (National Center for Advancing Translational Sciences (NCATS), 2013)
Hit rate of the full screen: of about 420,000 compounds, about 64,000 (15%) were called active. Inconclusive results, whose numbers are uncertain, are shown with a selection of clear calls. Calls follow the shape of the dose curve; as a rule, active = well fitted inhibition curve with a large enough effect; inconclusive = small, poorly fitted or top-dose-only effect; inactive = flat fitted curve, though single readings scatter. No potency is given beside an inconclusive call; the fits are too rough.

Test: qHTS for Inhibitors of human tyrosyl-DNA phosphodiesterase 1 (TDP1): qHTS in cells in absence of CPT; also: nearly all actives have a fitted effect of over 55% in size
Details: DT40 Tdp1-/- hTDP1 cells, no CPT, ATP luminescence, 48 h; activity change, negative = growth inhibition: at 46.2 µM (top of the series) unless noted
How it was run: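 Chicken DT40 Tdp1-/- cells stably complemented with human TDP1 were seeded at 400 cells/well with DMSO in place of 20 nM camptothecin. After compound pinning, cells grew at least 48 hr at 37 °C; viability read by CellTiter-Glo luminescence.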
% is scaled to controls: 0 for no effect and ±100 for the full control effect; potency is read from the fitted curve at half-maximal effect; tags tell the direction and shape of the fitted curve.

Row | Compound | Potency | activity change, negative = growth inhibition
1 | O=C(NCCC(NS(=O)(=O)OCC(Cl)(Cl)Cl)c1ccccc1)C(F)(F)F (stereo not drawn) | inconclusive [inhibitor, single point] | –
2 | O=C(CCNS(=O)(=O)c1cccs1)N1CCc2ccccc2C1 | – | inconclusive: -31% [inhibitor]
3 | CCOC(=O)N1CCN(C(=O)c2ccc3c(c2)NC(=O)/C(=C\c2ccc(OC)c(OC)c2)S3)CC1 | active: 16.4 µM | –
4 | CCCOc1cccc(-c2nn(-c3ccccc3)cc2/C=C(\C#N)C(=O)NCCCn2ccnc2)c1 | inconclusive [inhibitor, single point] | –
5 | O=Cc1ccc(Cl)c(Cl)c1 | – | inactive: -13.5%
6 | O=C(COc1ccccc1)NCc1nnc(SCC(=O)Nc2nccs2)n1-c1ccccc1 | – | inactive: -25.8%
7 | CC(C)(C)NC(=O)C(c1ccccn1)N(C(=O)c1csnn1)C1CCCC1 (stereo not drawn) | inconclusive [inhibitor, partial curve] | –
8 | COC(=O)c1ccc(NC(=O)C2CCCN2S(=O)(=O)c2ccc(OC)cc2)cc1 (stereo not drawn) | – | inconclusive: -34.9% [inhibitor]
9 | CC1=C(C(=O)OCCC#N)C(c2cc3c(cc2Br)OCO3)NC(=O)N1 (stereo not drawn) | – | inactive: -5%
10 | CCc1ccc(S(=O)(=O)/N=C2\C=C(Nc3ccc(C(=O)O)cc3)C(=O)c3ccccc32)cc1 | active: 23.1 µM | –
11 | Cc1ccc(S(=O)(=O)N2CCC[C@H]2C(=O)OCc2cc(=O)oc3cc(C)ccc23)cc1 | inconclusive [inhibitor, single point] | –
12 | CCc1nnc(NC(=O)C2CC(=O)N(c3ccc4c(c3)OCCO4)C2)s1 (stereo not drawn) | active: 18.4 µM | –
13 | C=CCc1c(C)nc2c(-c3ccccc3)cnn2c1N1CCOCC1 | inconclusive [inhibitor, single point] | –
14 | Cc1ccc(NC(=O)Cn2c(=O)n(CCC(=O)NCc3ccccc3Cl)c(=O)c3ccccc32)cc1 | active: 20.6 µM | –
15 | CCOC(=O)c1cnc2ccc(OCC)cc2c1N1CCN(C)CC1 | inconclusive [inhibitor, single point] | –
16 | Cc1ccc(-c2nnc3ccccc3c2C(=O)Nc2ccccc2F)cc1 | – | inactive: -22.4%
17 | Oc1ccc2ccccc2c1C=NC12CN3CCN(CN(C3)C1)C2 | inconclusive [inhibitor, single point] | –
18 | COc1cc(Cl)ccc1OCc1cc(C(=O)N2CCCCC2c2cccnc2)no1 (stereo not drawn) | inconclusive [inhibitor, single point] | –
19 | COc1cccc(C(=O)/C=C/Nc2ccc(S(=O)(=O)Nc3ncccn3)cc2)c1 | – | inconclusive: -38.7% [inhibitor]
20 | CCOc1ccccc1C(=O)N(Cc1ccccc1F)C1CCS(=O)(=O)C1 (stereo not drawn) | – | inactive: 5.84%
21 | NS(=O)(=O)c1ccc(N2CCN(CCOc3ccc(Cl)cc3)CC2)nc1 | active: 14.6 µM | –
22 | COc1ccc(Cl)cc1NC(=O)CSc1cn(CC(=O)N2CCCCCC2)c2ccccc12 | active: 11.6 µM | –
23 | O=C(COC(=O)C1CC2CCCC(C1)C2=O)Nc1ccc(F)c(Cl)c1 (stereo not drawn) | inconclusive [inhibitor, single point] | –
24 | CCCc1cc(=O)oc2cc(OC(C)C(=O)NCc3ccccn3)c(Cl)cc12 (stereo not drawn) | inconclusive [inhibitor, single point] | –
25 | CCc1ccc(N2C(=O)CN(Cc3cc(OC)c(OC)c(OC)c3)C2=S)cc1 | active: 23.1 µM | –

Row | Compound | Potency | activity change, negative = growth inhibition
26 | COc1ccc(CCn2c(C)cc(C(=O)CSc3nnc(N)s3)c2C)cc1 | inconclusive [inhibitor, single point] | –
27 | CCN(CC)S(=O)(=O)c1cccc(C(=O)N2CCCCC2)c1 | inconclusive [inhibitor, single point] | –
28 | Cc1cc(Nc2ccc(N3CCOCC3)cc2)c2cccc(C)c2n1 | inconclusive [inhibitor, single point] | –
29 | O=C(COC(=O)c1ccc(-c2ccccc2)cc1)Nc1ccccc1-c1ccccc1 | active: 10.3 µM | –
30 | Fc1ccccc1NC(=S)Nc1ccc(CN2CCOCC2)cc1 | – | inactive: 0.45%
31 | COc1ccccc1NC1=NC(c2ccc(Cl)cc2)N=C(N)N1 (stereo not drawn) | active: 5.8 µM | –
32 | Cc1cccc(C)c1OCCn1nnc2ccccc21 | inconclusive [inhibitor, single point] | –
33 | O=C(Nc1cccc(Cl)c1)ON=C1c2ccccc2-c2ccccc21 | inconclusive [inhibitor, partial curve] | –
34 | COc1ccccc1NC(=O)CSc1nc(-c2ccccc2F)nc2cc(=O)[nH]n12 | inconclusive [inhibitor, single point] | –
35 | Cc1ccc(-n2c(=O)c3c(c4cc(C)ccc4n3C)n(CC(=O)NCc3ccccc3)c2=O)cc1 | inconclusive [inhibitor, full curve] | –
36 | CC(=O)c1cn(CC(=O)NCc2cccnc2)c2ccccc12 | inconclusive [inhibitor, partial curve] | –
37 | Cc1ccc(C(C)C)c(OCC(=O)Nc2ccc(Cl)cn2)c1 | – | inactive: -20%
38 | NS(=O)(=O)c1ccc(-c2ccc(/C=C3\SC(=S)N(C4CCS(=O)(=O)C4)C3=O)o2)cc1 (stereo not drawn) | inconclusive [inhibitor, partial curve] | –
39 | CCOC(=O)c1c(N2C(=O)C3CC(C)=C(C)CC3C2=O)sc(C)c1C (stereo not drawn) | – | inactive: -7.53%
40 | Cc1ccc2occ(CC(=O)N(Cc3ccc(C(C)C)cc3)C3CCS(=O)(=O)C3)c2c1 (stereo not drawn) | inconclusive [inhibitor, single point] | –
41 | C[C@H](CO)N1C[C@H](C)[C@@H](CN(C)S(C)(=O)=O)Oc2ccc(NS(=O)(=O)c3ccccc3)cc2C1=O | – | inactive: -6.24%
42 | Cc1nn(C(=O)N(C)C)c(C)c1CN1C(=O)c2ccccc2C1=O | – | inactive: -2.94%
43 | Cc1cn([C@H]2C[C@H](O)[C@@H](CO)O2)c(=O)[nH]c1=O | inactive | –
44 | c1ccc(Nc2ncnc3ccc(-c4ccoc4)cc23)cc1 | inconclusive [inhibitor, single point] | –
45 | O=C(NCCOC(=O)c1ccc(Cl)cc1)c1cccnc1 | – | inactive: -15.6%
46 | COc1ccccc1CN(C)C[C@H]1OCc2cnnn2CCCC(=O)N([C@@H](C)CO)C[C@@H]1C | – | inactive: 7.22%
47 | COc1cc(/C=N/Nc2ccc(C(F)(F)F)cn2)ccc1O | inconclusive [inhibitor, single point] | –
48 | COc1ccc(S(=O)(=O)N2CCC(C(=O)N[C@@H](C)C(=O)NCc3ccco3)CC2)cc1 | – | inactive: -17.6%
49 | O=C(NC1(C(F)(F)F)C(=O)Nc2c1c(=O)[nH]c(=O)n2Cc1ccco1)C1CC1 (stereo not drawn) | – | inactive: -4.88%
50 | Cc1c(NC(=O)COC(=O)c2ccc(Br)o2)c(=O)n(-c2ccccc2)n1C | inconclusive [inhibitor, full curve, poor fit] | –

Row | Compound | Potency | activity change, negative = growth inhibition
51 | COc1ccc(NC(=O)c2c(NCc3cccc(OC)c3)sc3c2CCCC3)cc1 | active: 23.1 µM | –
52 | Cc1cc2nc(-c3ccc(F)cc3)c(CC3CCCCC3)n2c(C)c1Br | active: 20.6 µM | –
53 | O=C1[C@@H]2[C@@H]3C[C@@H]([C@H]4ON=C(c5ccc(Cl)cc5Cl)[C@@H]34)[C@@H]2C(=O)N1C1CCCCC1 | inconclusive [inhibitor, single point] | –
54 | O=C(Cn1cc(S(=O)(=O)Cc2ccc([N+](=O)[O-])cc2)c2ccccc21)N1CCOCC1 | – | inactive: -1.43%
55 | CC1=C(c2ccc(Cl)cc2)S(=O)(=O)N=C1N1CCC(C(=O)NCc2ccccc2F)CC1 | – | inactive: -2.97%
56 | COc1cc(NC(=O)C2CCCN(S(=O)(=O)c3cccc4nsnc34)C2)cc(OC)c1 (stereo not drawn) | active: 20.6 µM | –
57 | Cc1ccc(-c2nc(N)n(C(=O)Cc3ccccc3)n2)cc1 | inconclusive [inhibitor, partial curve, poor fit] | –
58 | CCCC1(CCC)NC(=O)N(CC(=O)Nc2ccc(Cl)c(S(=O)(=O)N3CCOCC3)c2)C1=O | inconclusive [inhibitor, single point] | –
59 | CC1CCCC(NC(=O)C2CCC(CNc3c(N4CCCCC4)c(=O)c3=O)CC2)C1C (stereo not drawn) | – | inactive: -12.8%
60 | Cc1cc(NC(=O)COC(=O)COc2ccc3c(c2)CCC3)no1 | – | inactive: -10.6%
61 | O=C(NCCC1CCCCN1S(=O)(=O)c1ccccc1)C(=O)NCc1ccccc1F (stereo not drawn) | inconclusive [inhibitor, partial curve] | –
62 | COc1cc(CN2CCCC(CO)(Cc3ccccc3)C2)ccc1O (stereo not drawn) | – | inactive: -11.4%
63 | CCCCCCOC(=O)Sc1nc2ccccc2o1 | – | inactive: 8.57%
64 | CC(=O)N(/N=C/c1cccc(C)c1)c1nc(-c2ccc(Br)cc2)cs1 | inconclusive [inhibitor, single point] | –
65 | COC1=C/C(=C/c2c(O)c(C#N)c3ccccn23)C=CC1=O | – | inactive: -1.03%
66 | COc1cc(/C=N/NC(=O)CCOc2ccccc2C)cc(Br)c1O | – | inactive: -4.51%
67 | Cc1nc(N2CCN(c3ccccn3)CC2)c2c(C)c(C(=O)Nc3c(C)cc(Br)cc3C)sc2n1 | inconclusive [inhibitor, partial curve] | –
68 | Clc1cccc(-n2ncc3c(NCCCn4ccnc4)ncnc32)c1 | inconclusive [inhibitor, single point] | –
69 | COc1c(F)c(F)c(C(=O)O)c(Nc2ccccc2C)c1F | – | inactive: -8.56%
70 | Cc1cccc(N2CCN(C(=O)Cn3nc(Cc4cccnc4)c4ccccc4c3=O)CC2)c1C | active: 8.2 µM | –
71 | COc1ccc(C2NC(=S)NC3=C2CCc2cc(OC)ccc23)cc1 (stereo not drawn) | inconclusive [inhibitor, single point] | –
72 | COc1ccc(NC(=O)Cn2c(=O)ccc3cc(S(=O)(=O)N4CCCC4)ccc32)cc1Cl | active: 13 µM | –
73 | COc1ccc(CNC(=O)c2ccc(N3CCOCC3)c([N+](=O)[O-])c2)cc1 | – | inactive: -19.5%
